From the supplement of paper PMC9046079 come the findings set out here.

Structures can show the parent of a compound that is named as a salt. ± gives the standard deviation of the averaged measurements. The list shows a part of the results.

The subject of the first assay is murine small intestinal organoids (ENR+CD Paneth differentiation). Put plainly: carbachol-stimulated secreted lysozyme activity relative to plate median (log10 fold change); higher = more Paneth cell lysozyme secretion. As to conditions: 0.08 µM; 6 d; carbachol 10 µM.
For the molecule `CC(C)(C)c1cc(/C=C(\C#N)C(N)=S)cc(C(C)(C)C)c1O` [Tyrphostin AG 879], the “carbachol-stimulated secreted lysozyme activity (log10)” value is -0.0983 ± 0.043. With `CN1CCC[C@@H]1CCO[C@](C)(c1ccccc1)c1ccc(Cl)cc1` [Clemastine Fumarate], the “carbachol-stimulated secreted lysozyme activity (log10)” value worked out at 0.0311 ± 0.1.

Consider `NC(=O)c1ncn([C@@H]2O[C@H](CO)[C@@H](O)[C@H]2O)c1N` [Acadesine], for which the “carbachol-stimulated secreted lysozyme activity (log10)” value was -0.0288 ± 0.13. Take `O=C(O)Cc1cccc(OCCCN(Cc2cccc(C(F)(F)F)c2Cl)CC(c2ccccc2)c2ccccc2)c1`: the “carbachol-stimulated secreted lysozyme activity (log10)” value is 0.124 ± 0.23. Same read-out and setting: for `CNC(=C[N+](=O)[O-])NCCSCc1ccc(CN(C)C)o1` [Ranitidine] the value was -0.064 ± 0.19. Still for that read-out and setting: to `O=C(NOC[C@H](O)CO)c1ccc(F)c(F)c1Nc1ccc(I)cc1F` belongs -0.256 ± 0.039. The same measure, in the same setting: to `COc1ccc2cccc(CCNC(C)=O)c2c1` [Agomelatine] belongs 0.0416 ± 0.03; to `CNC(=O)c1cc(Oc2ccc(NC(=O)Nc3cc(C(C)(C)C)nn3-c3ccc4ncccc4c3)c(F)c2)ccn1` [DCC-2036 (Rebastinib)], 0.415 ± 0.062. As to `CCN(CC)CC(=O)Nc1c(C)cccc1C` [Lidocaine], the “carbachol-stimulated secreted lysozyme activity (log10)” value worked out at 0.0221 ± 0.015.

Staying with this assay, now noted: 0.4 µM; 6 d; carbachol 10 µM.
For the molecule `CC(NC(=O)C(O)c1cc(F)cc(F)c1)C(=O)NC1C(=O)N(C)c2ccccc2-c2ccccc21` (centres undefined), the “carbachol-stimulated secreted lysozyme activity (log10)” value turned out to be 0.106 ± 0.17.

With `O=C(NCc1cccc(O)c1)Nc1nc(-c2ccncc2)cs1`, the “carbachol-stimulated secreted lysozyme activity (log10)” value amounted to 0.0318 ± 0.098.

For `COc1cc2nc(N3CCN(C(=O)C4COc5ccccc5O4)CC3)nc(N)c2cc1OC` (centres undefined) [Doxazosin Mesylate], the “carbachol-stimulated secreted lysozyme activity (log10)” value came out at 0.147 ± 0.18.

With `CC(C)Oc1ccc(-c2cnc3c(-c4ccnc5ccccc45)cnn3c2)cc1`, the “carbachol-stimulated secreted lysozyme activity (log10)” value amounted to 0.153 ± 0.05.

Regarding `CCc1nc(N)nc(N)c1-c1ccc(Cl)cc1` [Pyrimethamine], the “carbachol-stimulated secreted lysozyme activity (log10)” value is 0.0929 ± 0.2.

Take `CS(=O)(=O)N1CCN(Cc2cc3nc(-c4cccc5[nH]ncc45)nc(N4CCOCC4)c3s2)CC1`: the “carbachol-stimulated secreted lysozyme activity (log10)” value is -0.0791 ± 0.069.

`Cc1ccc(S(=O)(=O)n2c(N)nc3ccccc32)cc1` [ML130 (Nodinitib-1)]: the “carbachol-stimulated secreted lysozyme activity (log10)” value turned out to be 0.0436 ± 0.051. With `C=CC(=O)Nc1cccc(Nc2nc(Nc3ccc(OCCOC)cc3)ncc2F)c1`, the “carbachol-stimulated secreted lysozyme activity (log10)” value came to 0.0465 ± 0.07.

Turning to `CC(C)C[C@H](NC(=O)[C@H](Cc1ccccc1)NC(=O)c1cnccn1)B(O)O` [Bortezomib (PS-341)], the “carbachol-stimulated secreted lysozyme activity (log10)” value is -0.224 ± 0.1. Regarding `CC(C)(C)c1cc(NC(=O)Nc2ccc(-c3cn4c(n3)sc3cc(OCCN5CCOCC5)ccc34)cc2)no1` [Quizartinib (AC220)], the “carbachol-stimulated secreted lysozyme activity (log10)” value was 0.126 ± 0.043. Still for that read-out and setting: for `O=C(/C=C/n1cnc(-c2cc(C(F)(F)F)cc(C(F)(F)F)c2)n1)N1CC(F)(F)C1` the value was 0.182 ± 0.14; for `Cn1cc(/C=C2\C(=O)Nc3cccnc32)c2ccccc21`, 0.286 ± 0.26. Regarding `N#CC1(c2ccc(NC(=O)c3cccnc3NCc3ccncc3)cc2)CCCC1` [Apatinib], the “carbachol-stimulated secreted lysozyme activity (log10)” value was 0.0936 ± 0.057.

For the molecule `NC(=O)c1cccc(-c2cccc(OC(=O)NC3CCCCC3)c2)c1`, the “carbachol-stimulated secreted lysozyme activity (log10)” value was found to be 0.0578 ± 0.042. Same read-out and setting: to `COc1ccc(COc2ccc(Cc3cnc(N)nc3N)cc2OC)cc1` belongs 0.0845 ± 0.074. The same measure, in the same setting: for `Cc1ccc(S(=O)(=O)OCC(=O)Nc2ccc(C(=O)O)c(O)c2)cc1` the value was 0.262 ± 0.098; for `CCN(c1cc(-c2ccc(CN3CCOCC3)cc2)cc(C(=O)NCc2c(C)cc(C)[nH]c2=O)c1C)C1CCOCC1`, -0.0264 ± 0.075. `NC(=O)Nc1cc(-c2cccc(F)c2)sc1C(=O)N[C@H]1CCCNC1`: the “carbachol-stimulated secreted lysozyme activity (log10)” value is -0.2931 ± 0.0009. Same read-out and setting: to `COc1ccc(CNCc2cccc3ccccc23)cc1` belongs -0.0361 ± 0.045; to `CC(C)CCNC(=O)[C@H](CC(C)C)NC(=O)[C@H]1O[C@@H]1C(=O)O` [Loxistatin Acid (E-64C)], 0.0284 ± 0.11. Same read-out and setting: to `O=C(O)c1cccc(-c2noc(-c3ccccc3F)n2)c1` [Ataluren (PTC124)] belongs 0.0921 ± 0.048; to `CN(Cc1cnc2nc(N)nc(N)c2n1)c1ccc(C(=O)N[C@@H](CCC(=O)O)C(=O)O)cc1` [Methotrexate], -0.201 ± 0.025.

Take `CN1C2CCCC1CC(NC(=O)c1nn(C)c3ccccc13)C2` (centres undefined) [Granisetron HCl]: the “carbachol-stimulated secreted lysozyme activity (log10)” value was 0.172 ± 0.11. Still for that read-out and setting: to `COc1cc(Br)c(Nc2nc(-c3c(C)nc4ncccn34)cs2)c(Br)c1` belongs -0.0362 ± 0.091; to `CN[C@@H](C)C(=O)N[C@H](C(=O)N1CCC[C@H]1C(=O)Nc1snnc1-c1ccccc1)C1CCCCC1`, -0.0335 ± 0.078. For `O=C1CC(=O)c2c(Cl)c(Cl)c(Cl)c(Cl)c21`, the “carbachol-stimulated secreted lysozyme activity (log10)” value turned out to be 0.0144 ± 0.11. On to `COc1cc2c(cc1Cc1cccc(Cl)c1F)c(=O)c(C(=O)O)cn2[C@H](CO)C(C)C` [Elvitegravir (GS-9137, JTK-303)], for which the “carbachol-stimulated secreted lysozyme activity (log10)” value was 0.106 ± 0.46. `O=[N+]([O-])c1ccc2c(c1)S(=O)(=O)C=C2` [Stattic]: the “carbachol-stimulated secreted lysozyme activity (log10)” value was 0.139 ± 0.02. Same read-out and setting: to `CC(C)(C)c1cc(/C=C(\C#N)C(N)=S)cc(C(C)(C)C)c1O` [Tyrphostin AG 879] belongs -0.119 ± 0.12; to `CN1CCC[C@@H]1CCO[C@](C)(c1ccccc1)c1ccc(Cl)cc1` [Clemastine Fumarate], -0.106 ± 0.051.
